Reference: paper PMC4336329 (PLoS ONE, 2015)
The whole screen tested about 310,000 compounds, of which about 14,000 (4.5%) showed an effect of 50% or more. Effects have a minus sign here. The list shows a part of the results.

Molecular target: human ether-à-go-go-related gene (hERG) potassium channel (human, UniProt Q12809)
Test: primary screen, population patch clamp on CHO cells stably expressing hERG
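Also: peak tail current of the secondary pulse compared with the same well before compound.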

Chain of human ether-à-go-go-related gene (hERG) potassium channel (Q12809 whole entry, looked up): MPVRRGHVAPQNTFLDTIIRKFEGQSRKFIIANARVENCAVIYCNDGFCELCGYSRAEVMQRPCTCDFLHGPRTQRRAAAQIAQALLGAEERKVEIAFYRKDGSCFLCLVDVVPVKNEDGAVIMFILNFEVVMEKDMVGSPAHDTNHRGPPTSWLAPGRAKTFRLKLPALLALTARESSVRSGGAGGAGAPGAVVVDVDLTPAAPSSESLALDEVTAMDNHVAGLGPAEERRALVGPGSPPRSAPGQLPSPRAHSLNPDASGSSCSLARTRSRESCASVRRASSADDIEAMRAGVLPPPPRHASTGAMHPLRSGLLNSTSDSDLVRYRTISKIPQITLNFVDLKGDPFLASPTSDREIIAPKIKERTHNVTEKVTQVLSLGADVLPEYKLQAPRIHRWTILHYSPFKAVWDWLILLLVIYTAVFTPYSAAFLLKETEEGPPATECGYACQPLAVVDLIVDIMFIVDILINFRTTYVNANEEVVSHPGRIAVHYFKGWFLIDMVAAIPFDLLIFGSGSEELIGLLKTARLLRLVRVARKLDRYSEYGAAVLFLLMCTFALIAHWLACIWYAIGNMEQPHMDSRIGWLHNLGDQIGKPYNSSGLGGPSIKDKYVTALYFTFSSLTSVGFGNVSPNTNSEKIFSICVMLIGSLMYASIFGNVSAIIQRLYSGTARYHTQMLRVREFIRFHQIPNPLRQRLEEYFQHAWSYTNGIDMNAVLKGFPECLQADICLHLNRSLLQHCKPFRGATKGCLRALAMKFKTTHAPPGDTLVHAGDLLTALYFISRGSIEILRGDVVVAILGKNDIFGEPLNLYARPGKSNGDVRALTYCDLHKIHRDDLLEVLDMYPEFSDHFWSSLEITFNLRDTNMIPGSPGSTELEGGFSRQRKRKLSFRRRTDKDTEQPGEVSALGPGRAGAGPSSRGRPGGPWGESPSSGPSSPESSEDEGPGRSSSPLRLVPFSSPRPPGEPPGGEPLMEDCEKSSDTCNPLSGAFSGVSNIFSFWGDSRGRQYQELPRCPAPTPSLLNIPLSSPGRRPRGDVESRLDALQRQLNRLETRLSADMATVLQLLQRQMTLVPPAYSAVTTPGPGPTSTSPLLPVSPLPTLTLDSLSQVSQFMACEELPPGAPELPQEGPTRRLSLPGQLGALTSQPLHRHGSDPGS

Structure (SMILES)	hERG current change (%, negative = inhibition) at 10uM
CCCCCC(=O)C(=O)c1ccc(O)cc1O	16.6%
CC(C)CN1C(=O)c2ccc(C(=O)Nc3ccccc3C(=O)O)cc2C1=O	37.8%
Cl.O=C(NCCCn1ccnc1)c1ccccc1F	2.13%
CCN1CN(Cc2ccco2)CNC1=S	-0.0885%
CCn1c(=O)c(C(=O)NCc2ccccc2)c(O)c2ccccc21	19.1%
OCCN1CCN(C(=S)c2ccc(-c3ccccc3)cc2)CC1	-25.9%
COc1ccc(/C=N/n2c(C)cc(C)cc2=O)cc1	13.9%
CCn1c(=O)c(C(=O)NCc2cccnc2)c(O)c2ccccc21	-56.4%
Nc1c(C(=O)CSc2nnc(COc3ccc(Cl)cc3)o2)c(=O)[nH]c(=O)n1C1CC1	10.5%
CCN(CC)S(=O)(=O)c1cccc(NC(=O)COC(=O)/C=C/c2cccs2)c1	-8.54%
CC(=O)N1CCN(C(=O)COc2ccc3oc4c(c3c2)CCCC4)CC1	-25.4%
CC(=O)c1c(C)[nH]c(C(=O)NCCc2ccc(Cl)cc2)c1C	-14.4%
S=C(NCCc1ccc(Cl)cc1)NCc1ccco1	2.75%
COCCN(CCOC)C(=O)N1CCOCC1	26.3%
COc1cc(OC)cc(C(=O)NCc2ccc3[nH]c(C)cc3c2)c1	11.1%
CCn1c(SCC(=O)N2CCN(S(=O)(=O)c3ccccc3)CC2)nnc1-c1cccs1	-7.78%
N#Cc1ccccc1-c1ccccc1C(=O)N1CCCCC1	-7.77%
Cc1cc(C)c(OCCN2CCCC2)c(Cl)c1	-42.1%
Cc1c(N=C/C=C/c2ccccc2)c(=O)n(-c2ccccc2)n1C	11.1%

Structure (SMILES)	hERG current change (%, negative = inhibition) at 10uM
N#CC1=C(N)SC(N)=C(C#N)C1c1c(Cl)cccc1Cl	1.64%
O=C(CN1C(=O)c2cccc([N+](=O)[O-])c2C1=O)N1CCN(S(=O)(=O)c2ccccc2)CC1	-14.3%
COCc1cc(C)nc2sc(C(=O)Nc3ccccc3Br)c(N)c12	-9.3%
C(=C\CSc1nnnn1-c1ccccc1)/CSc1nnnn1-c1ccccc1	-42.6%
COc1ccc(-c2cc3nnc(-c4ccccc4)nc3s2)cc1	15.8%
CCCOc1ccc(C(=O)OCCN(CC)CC)cc1N.Cl	-51.9%
CC(C)CCn1c(Sc2nc3ccccc3o2)nc2c1c(=O)[nH]c(=O)n2C	-20.8%
O=C(N/C(=C\c1ccco1)C(=O)N1CCOCC1)c1ccco1	5.25%
COC(=O)c1cc(OC)c(OC)cc1N	-2.91%
Cn1nccc1NS(=O)(=O)c1ccc(C(C)(C)C)cc1	18.7%
COc1ccc(/C=C/C(=O)Nn2cnnc2)cc1	-7.45%
CC1CCN(C(=O)COC(=O)CCCN2C(=O)c3cccc4cccc(c34)C2=O)CC1	-31.3%
NC(=O)c1ccc(NC(=O)CCN=C2NS(=O)(=O)c3ccccc32)cc1	15.8%
CCOc1ccccc1NC(=O)CSc1nnnn1-c1ccccc1	-21.3%
Cc1ccc(S(=O)(=O)N2CCC(C(=O)OCc3ccc([N+](=O)[O-])cc3)CC2)cc1	-69.8%
O=C(c1cccc(F)c1)N1CCN=C1SCc1cccnc1	3.59%
Cc1ccc(C)c(N(C(=O)CNC(=O)c2ccco2)C(C(=O)NCC2CCCO2)c2ccccc2)c1 (stereo not drawn)	5.35%
NC(=O)c1c(NC(=O)c2ccccc2)sc2c1CCCC2	-36.9%
O=[N+]([O-])c1cc(C(F)(F)F)ccc1NCCNC(=S)Nc1ccc(Cl)cc1	-5.11%

Structure (SMILES)	hERG current change (%, negative = inhibition) at 10uM
Cc1ccc(CN2CCN(Cc3cccc4c3OCO4)CC2CCO)cc1 (stereo not drawn)	-51.2%
O=C(NNC(=O)C1CCN(c2ncccn2)CC1)c1ccccc1	22.8%
Cn1cccc1C(=O)NC(=O)COC(=O)CCNS(=O)(=O)c1cccc(C(F)(F)F)c1	-52.4%
Cn1c(=O)oc2cc(S(=O)(=O)N3CCC(C(=O)NCCc4ccccc4)CC3)ccc21	10.3%
CCN1CCN(CC(=O)Nc2ccc(S(=O)(=O)N3C(C)CCCC3C)cc2)CC1 (stereo not drawn)	-15.7%
C/C(CCc1ccccc1)=N/NC(=O)C(=O)NCc1ccccc1	21.7%
N#CCC(=O)N/N=C/c1cn(Cc2ccccc2C#N)c2ccccc12	20.9%
Cc1ccc(NC(=S)N(CCCN2CCN(C)CC2)Cc2cccs2)cc1C	-57%
Cc1cc2c(cc1S(=O)(=O)CCC(=O)Nc1cccc(C(F)(F)F)c1)OCC(=O)N2	-54%
O=C1N(Cc2cccc(Cl)c2)C[C@@H]2C[C@@H](c3cccc4ncccc34)N3CCC[C@@]123	-48.8%
CNc1c([N+](=O)[O-])cnn1-c1ccc(F)cc1	-2.95%
CC(C)Cn1c(CCCNC(=O)c2ccco2)nc2ccccc21	-6.77%
COc1ccc(NC(=O)C(c2ccc(OC)cc2)N(C)C(=O)CNC(C)=O)cc1 (stereo not drawn)	5.95%
CCOC(=O)c1sc(NC(=O)Cn2nnc3sc4c(c3c2=O)CCC(C(C)(C)C)C4)nc1C (stereo not drawn)	-2.93%
CC(C)=CC(=O)N1CCCC(N2CCN(c3ccccc3C)CC2)C1 (stereo not drawn)	-16%
O=Cc1c(NCCN2CCCC2)c2ccccc2[nH]c1=O	19.7%
Cc1cccc(/C=C2/Sc3ccc(C(=O)NCCN4CCCC4)cc3NC2=O)c1	-54.7%
COc1ccc(CNC(=O)N2CCN(c3cccc(C)c3C)CC2)cc1OC	-10.1%
CCc1nc2ccccc2c(=O)n1-c1cccc(OC)c1	-14.5%
